This is an account of results in PubChem BioAssay (NCI).

This experiment relates to EKVX NSCLC. In words: NCI-60 one-dose screen, 48 h (100 = growth as untreated, 0 = no growth, -100 = all killed).

Some compounds were tested as several samples or in several runs, with calls that do not always agree.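 For each line, cells grew in 96-well plates with the test compound present at a single concentration for 48 hours.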 For part of its entries the source gives two or more results. The other results are left out here. How the source made its calls: active means growth percent below 10; inactive means the rest. The source may hold further records. The screen tested this drug many times, at its own concentration, as given; each value is one run. Marks such as (2×) say how often a value occurs here.

For `COc1cccc2c1C(=O)c1c(O)c3c(c(O)c1C2=O)C[C@@](O)(C(=O)CO)C[C@@H]3OC1CC(N)C(O)C(C)O1` (stereo not given in full), the growth result reads like this: (0.25 µM, runs of 2010) “inactive: 84.7, 91.2, 80.5, 91.9, 80.3, 86.9, 77.8, 88.1, 83.7, 69.8, 72.5, 76.3, 69.9, 86.2, 92.5, 82 (2×), 92.1 (2×), 103, 96.3, 89.7, 99.7, 87, 96.6, 96.8, 96.4, 92.3, 96.1, 97.6, 98.2, 95.5, 93.5, 70.8, 71.8, 71.1, 84.5, 83.4, 73.5, 83, 72, 82.4, 86.1, 78.3, 85.4, 76.5, 86.8, 94.1, 94.9, 86.6, 91.6, 89, 82.6, 91.5, 86.4%”; (0.25 µM, runs of 2011) “inactive: 96.1, 88.9, 72.7, 67.8, 84.5, 89.5, 94.9 (2×), 88, 85.6, 86.9 (2×), 95.3, 90, 86.4, 86.8, 84.8, 79, 87.6, 89.1, 91.2 (2×), 88.1 (2×), 88.3, 90.2, 94, 87.1, 98.6, 97.5, 85.4 (2×), 74.9, 91.3, 92.3 (2×), 80.1, 78.4, 84.1, 81.9, 73.1, 63, 68.7, 81.5, 73.6, 73.9, 79.4, 82.4, 82.6, 83.4, 85, 80.3, 95.2, 68.5, 87.3, 96.6, 97.6, 89.7, 92, 74, 61.4, 60.2%”; (0.25 µM, runs of 2012) “inactive: 82.5, 74.4, 84.8, 76, 77, 87.5, 83.3 (2×), 90.4, 96.8, 86.5, 78.4, 86, 88, 69.3, 74.7, 82.4, 83.5%”; (0.25 µM, runs of 2014) “inactive: 64.7, 71.5, 69.5, 68.9, 80.8, 80.1 (2×), 79, 82.5, 85.6 (2×), 87, 85.5, 83, 88.8 (2×), 86, 81.9, 85, 86.2, 84.3, 81.7 (2×), 82.8, 84.5, 83.2, 87.3, 78.2 (3×), 80.4, 76.3, 75.7, 64.1 (2×), 63, 68, 75.8, 65.2, 65.6, 84.9, 74.6, 77.4, 75.6, 79.6, 67.1, 74.4, 73.2, 85.2, 75.9, 82.9, 87.6, 83.5, 90.6, 74.8, 82, 93.1, 75.4, 70.9, 81.2%”; (0.25 µM, runs of 2015) “inactive: 77.5 (2×), 80.3, 83.9, 80.5 (2×), 87.2, 81.2, 87, 86.2, 84.7, 90.3, 96.7, 80.6, 75.7, 85.7, 69.2 (2×), 80.4, 82.4, 91, 86.9, 83.3, 66.4, 62.3, 63.9, 69.8 (2×), 66.5, 75.1, 65.2, 67.3, 69.9, 69.7 (2×), 63.4, 64.5, 65.6, 61.7, 54.2, 60.9, 55.4, 49.6, 58.4, 61, 46.2, 50.9, 45.8, 50.5, 61.6, 75.3, 55.2, 60 (2×), 65.7, 56, 63.8, 69.1, 74.3, 69.4, 59.8, 68.4 (2×), 72.4, 70.7, 69.3, 63.3, 67.6, 62.5, 59.9, 67.8, 72.2, 62.2, 68.6, 62.7, 65.4, 64.9, 63.7%”; (0.25 µM, runs of 2016) “inactive: 72.9 (2×), 68.8, 69.7 (2×), 80, 78.6, 76.1 (2×), 73.5 (2×), 74.2, 66.5, 74.1, 68.2 (2×), 71.4, 60.6, 70.7, 76.7, 59.1 (2×), 56.3, 56.8, 52.7, 60.8, 65.2, 60.1 (2×), 64, 61.1, 59.4, 62.3, 63 (2×), 55.2, 58.9, 56.9, 57, 59.3 (2×), 63.4, 61.3 (2×), 68, 70.8, 68.4, 66.2, 60.9, 63.6, 56.6, 56.2, 57.7, 53.4, 57.5, 62, 58.3, 66.3, 65.4, 76.8, 74.3, 76, 75.9, 72.5, 75.8, 76.3, 73.6, 78, 83.4, 85.4, 74.6, 72.1, 69.5, 71.9, 69.1, 64.3, 70.2, 61.8, 67.2, 67.8% (2×)”. For the same compound, the growth result reads like this: (0.25 µM, runs of 2017) “inactive: 71.4, 76.6, 64.7, 66.6 (2×), 70.2 (3×), 73.1 (2×), 67.1, 66.5, 64, 69.3 (2×), 67.5, 68.7, 67.4 (2×), 66, 79.1, 75.4, 76.5, 74.9, 81.2 (3×), 77.7 (2×), 80.9 (3×), 73.2, 76.3, 74.3, 77.4, 47, 58, 60.1, 65.1, 64.3, 62.2, 65.2, 69.6, 53.4, 62.6, 71.8, 74.2, 67.7, 67.2, 71.1, 70.7, 66.9, 60.4, 60.9, 63.3 (2×), 65, 64.5, 77, 83.3, 74.8, 81.4, 79.4, 82.9, 79 (2×), 84.2, 86.1, 75.9, 72.7, 78.1, 83.8, 79.3%”; (0.25 µM, runs of 2018) “inactive: 72.6, 73.1, 69 (3×), 70.9, 79.7, 74.8, 73.9, 77.4 (2×), 73.3, 70.8, 77.3, 76.7, 89.3, 85.3, 86.4, 89.4, 87.3, 78.9 (2×), 68.5, 64.7, 64.5, 79.3, 83, 89.7, 91.8, 88, 88.2, 62.8, 63.2, 66.3, 65.2, 63.8, 61.8, 66.2, 70.2, 74.5, 72.5, 80.4, 83.9, 88.3, 87.9, 98.8, 95.1, 93.1, 70.3, 72.1%”; (0.25 µM, runs of 2019) “inactive: 42.9, 63 (2×), 55.7, 58, 54.8, 56.8, 61.1, 68.3, 82, 79.6, 80.5, 72.5, 78.1 (2×), 74.2 (2×), 71.8, 71.1, 74.1 (2×), 61.4, 64.9, 64.5, 66, 69.7, 67.2, 72.4, 77.9, 70.2, 78.4, 73.2, 78.3, 53.4, 60.3, 61.7, 64.1 (2×), 66.6, 69.9, 68.5, 69.2%”; (0.25 µM, runs of 2020) “inactive: 59, 58, 64.8, 66.6, 63.4, 65.7, 66.1, 75.5, 74, 77.4, 61.2, 79.1, 83.1, 93.5, 79.3, 85, 92.3, 82.5, 83.5, 90.6, 68.3, 68.7, 59.5%”; (0.25 µM, runs of 2021) “inactive: 62.7, 71.8, 62.5, 76.3, 78.3, 73.9, 68.9 (2×), 70.9, 69.7 (2×), 69.9, 67.9, 68.2, 72.4, 64.3, 57.1, 56.6, 63.4 (2×), 62.2, 59.6, 63.6, 66.2, 67.6 (2×), 60.8, 76.9, 83.5, 81.5 (2×), 79.1, 47.2, 54.6, 65, 62, 61.8, 72.2, 66.3, 69.4, 78, 72.3, 69, 75.8, 66.7, 57.4, 65.4, 82.5, 49.9, 43.5, 57.6, 58.1, 58.7%”; (0.25 µM, runs of 2022) “inactive: 24.3, 24.4, 59.1, 59.4, 19.3, 71.1, 55, 72.5, 71, 82, 77.9, 89.6, 38.5, 40.3, 45.1, 78.1, 83.9, 81.2, 75.5, 89, 50.2, 49.2, 52.4, 53.2, 47%”. Further, the growth entry is, setting by setting: (25 µM, runs of 1991) “active: -24.2, -29.4, -28.8, -31.2, -67, -27.8, -32.8, -33.1, -22, -65.8, -35.2, -29, -30.8, -22.4, -20.8, -51.6, -9.02, -25.8%”; (25 µM, runs of 1992) “active: -38.4 (3×), -19.5, -21.6 (2×), -34.7, 0.246, -5.98, -14.4, -32, -42.3, -34.9 (2×), -18.5, -44.2, -31.2, -42.1, -7.73, -29.5, -36.3, 1.99, -20.7, -26.6, -35.5 (2×), -43.3, -29.3, -23.2, -37.8, 4.43, -28.5, -31.5, -68.7, -17.7, -25, -0.64, -21.1, -19.3 (2×), -21.8, -36.8, -19.2, -29, -22.6, -65.4, -55.9, -11, -65.9, -33.6, -19.6, -23.5, -26.9, -61.5, -70.5, -74.5, -21.4, -32.9, -24.1, -61, -55.1, -18.2, -25.2, -54.9, -50.6, -75.1, -27.9, -42.6, -18.3 (2×), -34.3, -20.8, -62.1, -40.6, -69.5, -67.3, -47.5, -6.08, -33.5, -27.5, -26.1, -22, -23.8 (2×), -45.1, -55.4, -35.3, -46.6, -51.3, -54.3, -13, -53.4, -13.8, -52.4, -39.4, -43.6 (2×), -46.5, -30.1, -6.77, -22.5, -47.1, -41 (2×), -65.8, -43.4, -93.5, -27.8, -18.1, -27 (2×), -42.2, 5.75, -38.2% and inactive: 98.4%”; (25 µM, runs of 1993) “active: -26.7, -12.7, -28.2, -44.4, 6.35, -56.8, -36.6, -48.2, -40.3, -7.5, 6.68, -26.9, -5.05, -12.1, -13.8, -37.3 (2×), -53.4, -42.4, -18.6, -7.12, -12.8, -38.3, -7.07, -17.3, 0.823, -38.7, 6.43, -21.3, -5.74, -35.1, -51.6, 4.54, -8.54, -24.3, -51.5, -11.7, -31.1, -40.8, -33.3, -44%”.
